# Measurements as given in ChEMBL document CHEMBL4888484, “Replenishing the malaria drug discovery pipeline: Screening and hit evaluation of the MMV Hit Generation Library 1 (HGL1) against asexual blood stage Plasmodium falciparum ,using a nano luciferase reporter read-out” (2022).
# In all, about 150,000 compounds went through this assay and about 540 (0.36%) showed an effect of 50% or more. The list shows a part of the results.
# Test system: Plasmodium falciparum
# Assay: Primary screen in NF54 nanoGlo assay, in single point, at 2uM, 72h; a lower Z score goes with more inhibition
# Format: functional, Erythrocyte
# Conditions: timepoint 72 hour
Structure (SMILES),% Inhibition [%],Z score
CC(=O)Nc1ccc(S(=O)(=O)NC(=O)C2=Cc3ccccc3OC2)cc1,-2,0.34
CC(C)CCOC1CCN(C(=O)NCC2CCCN(C)C2)C1 (configuration not stated),-13,1.9
NC(=O)COc1c(Br)cccc1Br,-6,1.2
Cc1noc(C)c1-c1nc(C2CCCC2)nn1CCO,-9,1.48
C#CCCC1(CCC(=O)N2CC3CC2(C(F)F)C3)N=N1,-5,0.58
CC(C)(C)OC(=O)N1CCC(F)(F)[C@@H](C#N)C1,-3,0.53
Cc1onc(-c2ccccc2Cl)c1C(=O)NCC1(c2ccc(F)cc2)CCOCC1,-13,2.28
O=C(c1cnc2ccccc2n1)N1C2CCC1COC2,-14,1.64
CCC1(O)CN(C(=O)c2cn(-c3nc(C)cc(C)n3)nc2C(C)C)C1,-5,0.97
CCOc1cc(Cl)ccc1C(=O)N1CC[C@H](N2CCOCC2)C1,-5,0.6
c1cnc(N2CCN(Cc3ccco3)CC2)nc1,5,-0.93
CC1CN(C(=O)CCn2nnc3ccccc3c2=O)C(C)CO1 (configuration not stated),-8,1.59
Nc1c2c(-c3ccccc3Cl)nc(N3CCOCC3)nc2nn1-c1ccc(F)cc1,-6,0.54
NC(=O)CN1CCC(NC(=O)c2cnn(Cc3ccccc3)c2)CC1,-14,2.76
COCCN1C[C@@H](Cc2nc(C)nc3sccc23)CC1=O,-6,0.58
CCc1nc(-c2ccc(-c3noc(-c4ccsc4)n3)cc2)cs1,-17,1.7
O=C(c1ccccc1)N1c2nc(-c3ccc(F)cc3)nn2C2(CCCCC2)[C@@H]2CCCC[C@@H]21,-17,2.75
O=C(c1cn(C2CCN(S(=O)(=O)c3ccc(OC(F)(F)F)cc3)CC2)nn1)N1CCCC1,-1,0.1
CC(C)C[C@H](NC(=O)c1sccc1C#N)C(=O)Nc1cc[nH]n1,2,-0.38
COc1cccnc1NC(=O)NC1(C(F)(F)F)CCC1,-14,1.73
Cn1cc(-c2ccc3c(c2)OCC[C@@H]2CC[C@H](O)[C@@H](CNC(=O)[C@@H]4CN(C5CCOCC5)CCN4C3=O)O2)cn1,-8,0.98
Cc1cccnc1CNC(=NCCN1CCOCC1)NCCC(C)C,-15,2.9

Structure (SMILES),% Inhibition [%],Z score
COc1ccc(CC(=O)NCc2nnc3n2CCC3)cc1,30,-0.83
O=C1CC[C@@H]2CO[C@@H](c3ccccc3)N3C(=O)CC[C@H]3CO[C@H](c3ccccc3)N12,-3,0.26
CCOC(=O)N1CCN(CC(=O)c2cc(C)n(-c3ccc4c(c3)OCCO4)c2C)CC1,-14,1.99
COCC1(C)CCN(c2nnc(Cc3cccnc3)n2C)CC1,-8,1.26
Fc1ccc([C@@H]2C=C(c3ccc(Cl)cc3)Nc3nnnn32)cc1,2,-0.21
c1ccc(C2(CN[C@H](c3cccnc3)c3cc4ccccc4o3)CC2)cc1,-8,0.71
CCN(CC)CCN(Cc1cccs1)c1nn2cc(C)nc2s1,-8,0.68
CC1CCC(CC(=O)N2CC3(CC3)C2)CC1 (configuration not stated),-5,0.63
COc1ccc(-c2nnc(C)o2)cc1NC(=O)c1cc(C#N)cn1C,-14,2.96
Cn1nc(CNC(=O)c2cccs2)c2c1CCOC2,-4,0.82
CC(=O)N1CCC(Nc2cccnc2OC(C)C)CC1,5,-0.68
Cc1ccc2c(c1)cc(C(=O)N(C)CCc1ncon1)n2C,-6,0.96
Cc1cccc(OCC(O)CNC(C)c2cncc(F)c2)c1 (configuration not stated),4,-0.49
O=C(C(=O)N1CCCC1)c1ccc(Br)cc1,-15,2.14
C[C@H](Oc1cccc(F)c1C(N)=O)c1nc(C2CC2)no1,-6,0.93
FCCn1cc(-c2noc([C@H]3C[C@@H]3c3ccc(F)cc3F)n2)cn1,9,-1.66
O=C(NCc1ccccc1)c1cc(NC[C@H]2CCS(=O)(=O)C2)ccn1,-5,0.94
COc1ccc(N2CCN(C(=O)c3sc4nc(C)nc(N5CCCCC5)c4c3C)CC2)cc1,-3,0.45
CCCC[C@H](CC)CNS(=O)(=O)c1ccc(C)cc1,-2,0.22
CC1(C)C[C@H](NCc2cn3ccsc3n2)C(C)(C)O1,-5,0.54
Cc1c(NCc2cn(C(C)C)nn2)cccc1S(=O)(=O)NC1CC1,-6,1.13
Cc1cc(O)ccc1NC(=O)NCC(F)(F)F,-13,1.31

Structure (SMILES),% Inhibition [%],Z score
C[C@H](NC(=O)Nc1cccc(Cl)c1)c1ccc2c(c1)CC(=O)N2,-3,0.44
Cc1ccc(C)c(OCC(=O)OCC(=O)NC(N)=O)c1,27,-3.11
CN=C(NC)NCc1cc(C)c(F)c(C)c1,-1,0.08
CCCN(C)S(=O)(=O)CCN1CCCC1,-14,1.46
O=C(CN1CCC[C@H](O)C1)NCc1cc(-c2ccccc2Cl)no1,0,-0.05
O=C(c1ccc2c(c1)CCC2)N1C[C@@H]2CC[C@H]1CN(Cc1cscn1)C2,-22,2.34
CCn1nccc1CN(CCO)C(=O)c1ncoc1C1CC1,-8,1.35
CN1CCCN(C[C@H](O)c2ccc(Cl)c(F)c2)CC1=O,-7,1.09
CCc1ccc(C2CC(C(=O)NCc3ccc4c(c3)OCO4)CN(C(=O)c3ccc(F)cc3)C2)cc1 (configuration not stated),3,-0.42
O=S(=O)(c1cccc(-c2ccccc2)c1)N1CC2(CCNCC2)[C@H]2COC[C@H]21,-13,2.17
O=S(=O)(c1ccccc1)[C@H]1CCN(S(=O)(=O)C2CCCCC2)C1,-15,2.58
C[C@@H](c1cccc(O)c1)N(C)Cc1cncn1C,-8,1.18
CCc1c[nH]c2ncnc(NCc3ncccc3NC)c12,-9,1.47
C[C@H](NCCc1nnc2n1CCC2)c1cccc(OC(F)F)c1,-11,0.98
O=C(Cc1ccccc1)N(c1ccc2oc(=O)sc2c1)S(=O)(=O)c1cc(Cl)ccc1Cl,-24,3.01
Cc1cnc(N2CCC(Oc3ccnc(C(N)=O)c3)CC2)s1,0,0.04
Cc1cc(C)n([C@@H](CNS(=O)(=O)Cc2ccccc2Cl)c2ccsc2)n1,-6,1.2
COc1nn(C)cc1C(=O)N[C@@H](C)Cc1ccco1,-3,0.56
Cc1ccc(Oc2cnn(-c3ccc(F)cc3)c(=O)c2Nc2cccc(C(=O)N(C)Cc3ccccc3)c2)cc1,-1,0.25
COc1cc(C)sc1C(=O)N1CCC[C@@H]1CC(=O)O,-1,0.13
CON(C)C1CCN(C(=O)CCc2cccc(OC(F)F)c2)CC1,-7,0.75
CN(C)[C@H]1CCN(CCC(=O)NCc2cccc(Cl)c2)C1,0,0.08

Structure (SMILES),% Inhibition [%],Z score
CC(C)Oc1cccc(CNC(=O)N2CCC3(CCC(=O)N(C)CC3)CC2)c1,-1,0.06
CC(C)N1CCN(S(=O)(=O)c2ccc3c(c2)CCC(=O)N3)CC1,1,-0.2
FC(F)Oc1cccc(-c2cc(C(F)(F)F)c3c(-c4ccc5c(c4)OCO5)noc3n2)c1,35,-0.79
CN(C)C(=O)c1ccc2c(c1)N(CC(=O)NCc1ccc3c(c1)OCO3)C(=O)CO2,0,0.03
Cc1nc(C[C@@H]2NC(=O)NC2=O)n(C(C)(C)C)n1,2,-0.37
Cc1cc([C@@H](O)CNC(=O)c2cncc(Br)c2)c(C)o1,-7,1.09
CN(Cc1ccc(F)cc1)C(=O)Cn1ncn(C)c1=O,-6,0.65
O=S(=O)(Cc1ccccc1)N1CCC(Cc2ccn[nH]2)CC1,-12,1.53
Cc1nc(-c2cccnc2)c2ccccc2n1,-16,2.3
CCCCN(CC)C(=O)Nc1cnns1,-9,0.89
Cc1cc(NC(=O)NCCC(=O)Nc2ccccc2)ccn1,-6,0.96
NC(=O)c1cc(CCCOCc2ccccc2)ccc1F,-1,0.19
CS(=O)(=O)N1CC[C@@H](C(=O)Nc2ccc3c(c2)OCO3)Oc2ccccc21,-3,0.54
COc1ccc(CCNC(=O)CN2CC[C@](O)(C3CC3)[C@@H](C)C2)cc1,-4,0.56
CCN(C(=O)c1cc(COC(C)(C)C)on1)c1ccccc1Cl,7,-0.82
CC(C)(O)C1CN(C(=O)N[C@H](c2ccccc2)C(F)F)C1,-18,1.91
C=CCCCN(C)C(=O)c1cc(S(N)(=O)=O)cc(Cl)c1F,37,-5.75
COc1ccc(CCC(=O)Nc2ncc(Cc3ccc(C#N)cc3)s2)cc1,30,-3.93
O=C(Nc1ccc(O)cc1F)c1n[nH]c2c1CCC2,0,-0.02
COc1ccc(OCCN2CC(=O)N(c3ccc(C(C)C)cc3)[C@@H]3CS(=O)(=O)C[C@@H]32)cc1,-19,2.42
